The values below come from the supplement of paper PMC12217912.

The labels stand for the following.
B1: TEV protease; numbered along this chain (parent)
chain: MGESLFKGPRDYNPISSSICHLTNESDGHTTSLYGIGFGPFIITNKHLFRRNNGTLVVQSLHGVFKVKDTTTLQQHLVDGRDMIIIRMPKDFPPFPQKLKFREPQREERICLVTTNFQTKSMSSMVSDTSCTFPSGDGIFWKHWIQTKDGQCGSPLVSTRDGFIVGIHSASNFTNTNNYFTSVPKNFMELLTNQEAQQWVSGWRLNADSVLWGGHKVFMVKPEEPFQPVKEATQL

The list shows a part of the results. Sequences were assembled here from the parent chain. Values near 0.05 are background.
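Note: Bxb1 expression induced with 0.2% (w/v) L-rhamnose at OD600 near 0.5, cultures sampled hourly, flipped fraction per protease–substrate barcode pair counted by paired-end Illumina sequencing.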

This assay covers variants of B1. The experiment in a line: raw area under fraction-flipped curve 0-4 h after induction (AUC4h, not background-subtracted), DNA-recorder readout of cleavage of the substrate (dimensionless); higher = more cleavage of the substrate by the protease variant. As to conditions: temperature: 34 °C; time window: 0-4 h after rhamnose induction.
For MGESLFKGPRDYNPISSSICHLTNESDGHTTSLYGIGFGPFIITNKHLFRRNNGTLVVQSLHGVFKVKDTTTLQQHLVDGRDMIIIRMPKDFPPFPQKLKFREPQREERICLVTTNFQTKSMSSMVSDTSCTFPSGDGIFWKHWIQTKDGQCGSPLVSTRDGFIVGIHSASNFTNTNPYFTSVPKNFMELLTNQEAQQWVSGWRLNADSVLWGGHKVFMVKPEEPFQPVKEATQL [N178P], the “area with substrate ENLYFIS” value was 0.0619, the “area with substrate ENLYFMS” value was 0.0586 and the “area with substrate ENLYFTS” value was found to be 0.0397.
Regarding MGESLFKGPRDYNPISSSICHLTNESDGHTTSLYGIGFGPFIITNKHLFRRNNGTLVVQSLHGVFKVKDTTTLQQHLVDGRDMIIIRMPKDFPPFPQKLKFREPQREERICLVTTNFQTKSMSSMVSDTSCTFPSGDGIFWKHWIQTKDGQCGSPLVSTRDGFIVGIHSAWNFTNTNNYFTSVPKNFMELLTNQEAQQWVSGWRLNADSVLWGGHKVFMVKPEEPFQPVKEATQL [S171W], the “area with substrate ENLYFGS” value was 0.0733, the “area with substrate ENLYFMS” value came to 0.0657, the “area with substrate ENLYFNS” value came to 0.0634 and the “area with substrate ENLYFTS” value stood at 0.0497. For the same variant, the “area with substrate ENLYFYS” value was 0.0786.
Take MGESLFKGPRDYNPISSSICHLTNESDGHTTSLYGIGFGPFIITNKHLFRRNNGTLVVQSLHGVFKVKDTTTLQQHLVDGRDMIIIRMPKDFPPFPQKLKFREPQREERICLVTTNFQTKSMSSMVSDTSCTFPSGDGIFWKHWIQTKDGQCGSPLVSTRDGFIVGIHSASNFTNTNNYFDSVPKNFMELLTNQEAQQWVSGWRLNADSVLWGGHKVFMVKPEEPFQPVKEATQL [T181D]: the “area with substrate ENLYFGS” value stood at 0.0543, the “area with substrate ENLYFIS” value was found to be 0.0555, the “area with substrate ENLYFLS” value was 0.0528 and the “area with substrate ENLYFNS” value worked out at 0.0607. For the same variant, the “area with substrate ENLYFPS” value worked out at 0.0721, the “area with substrate ENLYFSS” value was found to be 0.0793 and the “area with substrate ENLYFYS” value stood at 0.0636.
For MGESLFKGPRDYNPISSSICHLTNESDGHTTSLYGIGFGPFIITNKHLFRRNNGTLVVQSLHGVFKVKDTTTLQQHLVDGRDMIIIRMPKDFPPFPQKLKFREPQREERICLVTTNFQTKSMSSMVSDTSCTFPSGDGIFWKHWIQTKDGQCGSPLVSTRDGFIVGIHSASNFTNTNNYFNSVPKNFMELLTNQEAQQWVSGWRLNADSVLWGGHKVFMVKPEEPFQPVKEATQL [T181N], the “area with substrate ENLYFFS” value turned out to be 0.0591, the “area with substrate ENLYFMS” value turned out to be 0.0792, the “area with substrate ENLYFRS” value was 0.0696 and the “area with substrate ENLYFVS” value amounted to 0.0625.
Consider MGESLFKGPRDYNPISSSICHLTNESDGHTTSLYGIGFGPFIITNKHLFRRNNGTLVVQSLHGVFKVKDTTTLQQHLQDGRDMIIIRMPKDFPPFPQKLKFREPQREERICLVTTNFQTKSMSSMVSDTSCTFPSGDGIFWKHWIQTKDGQCGSPLVSTRDGFIVGIHSASNFTNTNNYFTSVPKNFMELLTNQEAQQWVSGWRLNADSVLWGGHKVFMVKPEEPFQPVKEATQL [V78Q], for which the “area with substrate ENLYFFS” value was 0.0682, the “area with substrate ENLYFIS” value came out at 0.0515, the “area with substrate ENLYFMS” value turned out to be 0.0605 and the “area with substrate ENLYFRS” value turned out to be 0.0471.
For MGESLFKGPRDYNPISSSICHLTNESDGHTTSLYGIGFGPFIITNKHLFRRNNGTLVVQSLHGVFKVKDTTTLQQHLVDGRDMIIIRMPKDFPPFPQKLKFREPQREERICLVTTNFQTKSMSSMVSDTSCTFPSGDGIFLKHWIQTKDGQCGSPLVSTRDGFIVGIHSASNFTNTNNYFTSVPKNFMELLTNQEAQQWVSGWRLNADSVLWGGHKVFMVKPEEPFQPVKEATQL [W141L], the “area with substrate ENLYFFS” value amounted to 0.0686, the “area with substrate ENLYFHS” value is 0.0462, the “area with substrate ENLYFLS” value came out at 0.0276 and the “area with substrate ENLYFMS” value turned out to be 0.06. The “area with substrate ENLYFNS” value is 0.0654, the “area with substrate ENLYFPS” value amounted to 0.0623, the “area with substrate ENLYFRS” value came to 0.0722 and the “area with substrate ENLYFTS” value came out at 0.0487.
As for MGESLFKGPRDYNPISSSICHLTNESDGHTTSLYGIGFGPFIITNKHLFRRNNGTLVVQSLHGVFKVKDTTTLQQHLVDGRDMIIIRMPKDFPPQPQKLKFREPQREERICLVTTNFQTKSMSSMVSDTSCTFPSGDGIFWKHWIQTKDGQCGSPLVSTRDGFIVGIHSASNFTNTNNYFTSVPKNFMELLTNQEAQQWVSGWRLNADSVLWGGHKVFMVKPEEPFQPVKEATQL [F95Q], the “area with substrate ENLYFGS” value turned out to be 0.0372, the “area with substrate ENLYFMS” value is 0.07, the “area with substrate ENLYFRS” value stood at 0.0365 and the “area with substrate ENLYFSS” value was 0.0459.
Regarding MGESLFMGPRDYNPISSSICHLTNESDGHTTSLYGIGFGPFIITNKHLFRRNNGTLVVQSLHGVFKVKDTTTLQQHLVDGRDMIIIRMPKDFPPFPQKLKFREPQREERICLVTTNFQTKSMSSMVSDTSCTFPSGDGIFWKHWIQTKDGQCGSPLVSTRDGFIVGIHSASNFTNTNNYFTSVPKNFMELLTNQEAQQWVSGWRLNADSVLWGGHKVFMVKPEEPFQPVKEATQL [K7M], the “area with substrate ENLYFFS” value came out at 0.116, the “area with substrate ENLYFGS” value is 0.0807, the “area with substrate ENLYFIS” value was determined as 0.0659 and the “area with substrate ENLYFMS” value amounted to 0.068. For the same variant, the “area with substrate ENLYFPS” value came out at 0.0634, the “area with substrate ENLYFTS” value amounted to 0.0513 and the “area with substrate ENLYFWS” value turned out to be 0.0506.
With MGESSFKGPRDYNPISSSICHLTNESDGHTTSLYGIGFGPFIITNKHLFRRNNGTLVVQSLHGVFKVKDTTTLQQHLVDGRDMIIIRMPKDFPPFPQKLKFREPQREERICLVTTNFQTKSMSSMVSDTSCTFPSGDGIFWKHWIQTKDGQCGSPLVSTRDGFIVGIHSASNFTNTNNYFTSVPKNFMELLTNQEAQQWVSGWRLNADSVLWGGHKVFMVKPEEPFQPVKEATQL [L5S], the “area with substrate ENLYFFS” value is 0.042, the “area with substrate ENLYFHS” value was 0.0501, the “area with substrate ENLYFIS” value was 0.0522 and the “area with substrate ENLYFKS” value worked out at 0.0596. In addition, the “area with substrate ENLYFLS” value was 0.0513, the “area with substrate ENLYFMS” value came out at 0.0777, the “area with substrate ENLYFRS” value worked out at 0.0601 and the “area with substrate ENLYFSS” value was 0.0592.
For MGESLFKGPRDYNPISSSICHLTNESDGHTTSLYGIGFGPFIITNKHLFRRNNGTLVVQSLHGVFKVKDTTTLNQHLVDGRDMIIIRMPKDFPPFPQKLKFREPQREERICLVTTNFQTKSMSSMVSDTSCTFPSGDGIFWKHWIQTKDGQCGSPLVSTRDGFIVGIHSASNFTNTNNYFTSVPKNFMELLTNQEAQQWVSGWRLNADSVLWGGHKVFMVKPEEPFQPVKEATQL [Q74N], the “area with substrate ENLYFGS” value amounted to 0.0566, the “area with substrate ENLYFIS” value worked out at 0.0628, the “area with substrate ENLYFKS” value is 0.0648 and the “area with substrate ENLYFMS” value was determined as 0.0613. Besides, the “area with substrate ENLYFPS” value was determined as 0.0609, the “area with substrate ENLYFRS” value was found to be 0.0525, the “area with substrate ENLYFVS” value is 0.0529 and the “area with substrate ENLYFYS” value is 0.0401.
MGESLFKGPRDYNPISSSICHLTNESDGHTTSLYGIGFGPFIITNKHLFRRNNGTLVVQSLHGVFKVKATTTLQQHLVDGRDMIIIRMPKDFPPFPQKLKFREPQREERICLVTTNFQTKSMSSMVSDTSCTFPSGDGIFWKHWIQTKDGQCGSPLVSTRDGFIVGIHSASNFTNTNNYFTSVPKNFMELLTNQEAQQWVSGWRLNADSVLWGGHKVFMVKPEEPFQPVKEATQL [D69A]: the “area with substrate ENLYFFS” value turned out to be 0.0542, the “area with substrate ENLYFGS” value was 0.0427, the “area with substrate ENLYFIS” value was found to be 0.064 and the “area with substrate ENLYFMS” value is 0.0674. Besides, the “area with substrate ENLYFTS” value is 0.0483, the “area with substrate ENLYFVS” value amounted to 0.0528 and the “area with substrate ENLYFYS” value was found to be 0.0594.
